Measured values from PMC4336329 (PLoS ONE, 2015).
Screen size: about 310,000 compounds; about 2,200 (0.71%) showed an effect of 50% or more. Effects have a minus sign here. This is one part of the list.

These compounds were tested against human ether-à-go-go-related gene (hERG) potassium channel (human, UniProt Q12809) (assay: primary screen, population patch clamp on CHO cells stably expressing hERG).
human ether-à-go-go-related gene (hERG) potassium channel, sequence (Q12809 whole entry, looked up): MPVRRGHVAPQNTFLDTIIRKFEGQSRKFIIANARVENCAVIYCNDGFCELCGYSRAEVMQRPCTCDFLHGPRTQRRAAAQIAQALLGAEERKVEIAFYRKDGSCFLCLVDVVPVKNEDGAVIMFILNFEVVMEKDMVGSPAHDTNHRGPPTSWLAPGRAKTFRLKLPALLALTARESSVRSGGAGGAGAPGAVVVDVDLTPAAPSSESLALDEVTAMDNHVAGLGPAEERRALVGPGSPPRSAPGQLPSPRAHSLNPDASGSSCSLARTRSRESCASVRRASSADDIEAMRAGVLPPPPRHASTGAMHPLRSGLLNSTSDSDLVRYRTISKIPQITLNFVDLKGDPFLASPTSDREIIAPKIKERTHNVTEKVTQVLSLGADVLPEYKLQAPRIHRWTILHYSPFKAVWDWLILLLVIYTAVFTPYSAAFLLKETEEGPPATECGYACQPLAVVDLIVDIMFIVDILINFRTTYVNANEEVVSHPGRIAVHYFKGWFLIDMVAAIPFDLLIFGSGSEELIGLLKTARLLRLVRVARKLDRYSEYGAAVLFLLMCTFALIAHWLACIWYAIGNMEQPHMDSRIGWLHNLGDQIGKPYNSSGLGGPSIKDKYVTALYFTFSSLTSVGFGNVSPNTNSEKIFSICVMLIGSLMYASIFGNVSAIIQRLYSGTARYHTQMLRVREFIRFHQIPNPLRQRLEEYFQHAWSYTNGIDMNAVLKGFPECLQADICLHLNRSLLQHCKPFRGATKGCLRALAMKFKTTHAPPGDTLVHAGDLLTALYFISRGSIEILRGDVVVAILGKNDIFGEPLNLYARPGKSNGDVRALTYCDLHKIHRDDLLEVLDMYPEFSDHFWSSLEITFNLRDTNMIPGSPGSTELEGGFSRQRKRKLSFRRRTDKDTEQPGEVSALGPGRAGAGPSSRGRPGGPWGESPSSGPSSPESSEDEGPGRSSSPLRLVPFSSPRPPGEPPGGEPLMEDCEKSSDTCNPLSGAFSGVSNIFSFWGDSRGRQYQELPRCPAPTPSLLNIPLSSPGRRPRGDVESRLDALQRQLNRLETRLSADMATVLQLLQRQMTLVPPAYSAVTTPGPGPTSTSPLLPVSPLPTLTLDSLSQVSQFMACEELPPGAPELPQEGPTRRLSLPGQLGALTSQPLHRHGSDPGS
With `C=CCn1c(SCC(=O)NC2CC2)nc2sc(CC)cc2c1=O` the “hERG current change (%, negative = inhibition) at 1uM” value was -4.76%. In the case of `O=C(NCc1cccs1)C1CCC(=O)N1C1CCCCC1` (centres unmarked), the “hERG current change (%, negative = inhibition) at 1uM” value is reported as 11.8%. For `CN(C)C1(CN=Cc2cc(Cl)cc([N+](=O)[O-])c2O)CCCCC1`, the “hERG current change (%, negative = inhibition) at 1uM” value was 14.1%. In the case of `Cc1onc(-c2c(F)cccc2Cl)c1C(=O)OCc1cnc(Cl)s1`, the “hERG current change (%, negative = inhibition) at 1uM” value is reported as 13%. With `Cc1cc2n(n1)C(c1cccs1)Nc1ccccc1-2` (centres unmarked) the “hERG current change (%, negative = inhibition) at 1uM” value was 9%. With `CCOc1ccccc1N1CCN(C(=O)c2cccs2)CC1` the “hERG current change (%, negative = inhibition) at 1uM” value was 13.9%. With `CCOc1ccc(CCNC(=O)CSCC(=O)Nc2cccc(C)c2)cc1OCC` the “hERG current change (%, negative = inhibition) at 1uM” value was 7.27%. `COc1ccc(C2=C(C[NH+](C)C)C(c3ccccc3)c3ccccc3O2)cc1.[Cl-]` (centres unmarked) was tested, and the “hERG current change (%, negative = inhibition) at 1uM” value was 9.73%. With `CCc1ccccc1NC(=O)CSc1nnc([C@@H](N)Cc2c[nH]c3ccccc23)o1.Cl` the “hERG current change (%, negative = inhibition) at 1uM” value was -4.23%. For `Cc1cccc(N2CCN(C(=O)C3CCN(S(=O)(=O)c4cccc5cccnc45)CC3)CC2C)c1` (centres unmarked), the “hERG current change (%, negative = inhibition) at 1uM” value was 8.86%. For `CC1=C(C(=O)Nc2ccc(Cl)cc2)C2(CCCCC2)C(C(N)=O)C(=S)N1` (centres unmarked), the “hERG current change (%, negative = inhibition) at 1uM” value was 5.88%. `CC(=O)N1CCc2c(sc(NC(=O)C3CCN(S(=O)(=O)c4cccs4)CC3)c2C(N)=O)C1` was tested, and the “hERG current change (%, negative = inhibition) at 1uM” value was -3.63%. In the case of `Cc1cc(C)cc(NC(=O)CCN2CC(C)OC(C)C2)c1` (centres unmarked), the “hERG current change (%, negative = inhibition) at 1uM” value is reported as 12.7%. For `Cc1ccc2oc3c(c(=O)c2c1)C(c1cccs1)N(CCCN(C)C)C3=O` (centres unmarked), the “hERG current change (%, negative = inhibition) at 1uM” value was 7.72%. `Cc1cc(N/N=C/c2ccccc2[N+](=O)[O-])nc(-n2nc(C)cc2C)n1` was tested, and the “hERG current change (%, negative = inhibition) at 1uM” value was 18.5%. In the case of `CCCCn1c(SCC(=O)NCc2ccco2)nnc1-c1ccco1`, the “hERG current change (%, negative = inhibition) at 1uM” value is reported as -4.89%. For `COCc1cc(C)nc(Nc2ccc(C)c(C)c2)c1C#N`, the “hERG current change (%, negative = inhibition) at 1uM” value was 1.67%. `CC(=O)N[C@@H](Cc1ccc(O)cc1)CN1C(N)=NC[C@@H]1CC(C)C` was tested, and the “hERG current change (%, negative = inhibition) at 1uM” value was 5.59%. For `COCCn1c(C)cc(C(=O)CSc2ncn[nH]2)c1C`, the “hERG current change (%, negative = inhibition) at 1uM” value was 4.71%. For `CSCc1cc(N(C)C)nc(SCc2ccc(Cl)c(Cl)c2)n1`, the “hERG current change (%, negative = inhibition) at 1uM” value was 9.47%. With `CCOC(Cn1c(-c2ccc(OC)cc2)nc2ccccc21)OCC` the “hERG current change (%, negative = inhibition) at 1uM” value was -3.69%. With `Cc1ccc(N(C(=O)c2csnn2)C(C(=O)NC(C)(C)C)c2ccncc2)cc1` (centres unmarked) the “hERG current change (%, negative = inhibition) at 1uM” value was 10.2%. With `CCCn1cnnc1CNC(=O)C1CCC(=O)N(CCc2ccc(OC)cc2)C1` (centres unmarked) the “hERG current change (%, negative = inhibition) at 1uM” value was 16.7%. `O=C(NNC(=O)c1ccccc1F)C1=NN(c2ccccc2)C(=O)CC1` was tested, and the “hERG current change (%, negative = inhibition) at 1uM” value was 13.1%. In the case of `Cc1cccc2sc(N(CCN(C)C)C(=O)/C=C/c3cccs3)nc12.Cl`, the “hERG current change (%, negative = inhibition) at 1uM” value is reported as 4.81%. For `CCc1cc2cc(C)ccc2nc1SCC(=O)N1CC(=O)Nc2ccccc21`, the “hERG current change (%, negative = inhibition) at 1uM” value was 13.3%. With `COCCNC(=O)NC12CC3CC(CC(C3)C1)C2` the “hERG current change (%, negative = inhibition) at 1uM” value was 16.1%. With `CCOC(=O)c1cc(-c2ccccc2)sc1NC(=O)COC` the “hERG current change (%, negative = inhibition) at 1uM” value was 11.7%. With `Cc1cccc(/C=N/NC(=O)CN2CCCCCCC2)c1` the “hERG current change (%, negative = inhibition) at 1uM” value was -4.73%. For `CN(C)S(=O)(=O)n1cnc(C(CCO)c2ncn(S(=O)(=O)N(C)C)c2CCCO)c1` (centres unmarked), the “hERG current change (%, negative = inhibition) at 1uM” value was 5.19%. In the case of `CCOc1ccc(C2CC(c3cccc(C)c3)n3nc(N)nc3N2)cc1` (centres unmarked), the “hERG current change (%, negative = inhibition) at 1uM” value is reported as -20%. `CN(C)CCCN1c2ccc([N+](=O)[O-])cc2CCc2cc([N+](=O)[O-])ccc21` was tested, and the “hERG current change (%, negative = inhibition) at 1uM” value was 4.35%. For `Cc1cc(NC(=O)CSc2n[nH]c(-c3cccs3)n2)no1`, the “hERG current change (%, negative = inhibition) at 1uM” value was 12.5%. In the case of `O=C1[C@H]2[C@@H](/C=C/c3ccccc3)N3C(=O)CN(Cc4ccccn4)C(=O)[C@@]3(Cc3ccccc3)[C@H]2C(=O)N1c1ccccc1`, the “hERG current change (%, negative = inhibition) at 1uM” value is reported as -11.3%. With `Cc1ccc([N+](=O)[O-])cc1S(=O)(=O)Nc1ccc(N2CCOCC2)cc1` the “hERG current change (%, negative = inhibition) at 1uM” value was 21.8%. `CC(=O)NC(=S)Nc1ccc(NC(=O)COc2ccc(C(C)C)cc2)cc1` was tested, and the “hERG current change (%, negative = inhibition) at 1uM” value was 7.56%. For `CCOc1ccc(-c2n[nH]c(C)c2-c2ccccn2)c(O)c1`, the “hERG current change (%, negative = inhibition) at 1uM” value was -3.73%. `CCn1c(=O)c(C(=O)NNC(=O)c2cccc(Cl)c2)c(O)c2ccccc21` was tested, and the “hERG current change (%, negative = inhibition) at 1uM” value was 16.2%. For `CC(C)(C)NC(=O)C(c1ccncc1)N(C(=O)C1CSC(=O)C1)c1ccccc1` (centres unmarked), the “hERG current change (%, negative = inhibition) at 1uM” value was 13.5%. For `COc1ccc(NC(=S)N(CCC(C)C)C(C)c2ccncc2)cc1` (centres unmarked), the “hERG current change (%, negative = inhibition) at 1uM” value was -8.31%. In the case of `CCCc1cc(C(=O)NNC(=S)Nc2cccc(C)c2)cs1`, the “hERG current change (%, negative = inhibition) at 1uM” value is reported as -10.3%. In the case of `COc1cc(Cl)cc(/C=C/c2ccc3cccc(O)c3n2)c1OC`, the “hERG current change (%, negative = inhibition) at 1uM” value is reported as 9.37%. In the case of `Cc1c(C(=O)N2CCN(C/C=C/c3ccccc3)CC2)oc2c(F)cccc12`, the “hERG current change (%, negative = inhibition) at 1uM” value is reported as 1.59%. With `CC(C)n1c(O)c(N=NC(=O)CNC(=O)Cc2ccc(Cl)cc2)c2ccccc21` the “hERG current change (%, negative = inhibition) at 1uM” value was 10.4%. With `CCN(Cc1ccncc1)C(=O)c1cc(COc2ccc(OC)cc2Cl)on1` the “hERG current change (%, negative = inhibition) at 1uM” value was 7.12%. With `COc1ccccc1NC(=S)NCCc1c[nH]c2ccccc12` the “hERG current change (%, negative = inhibition) at 1uM” value was 10.6%. In the case of `c1ccc2c(Nc3ccc(N4CCOCC4)cc3)nc(N3CCOCC3)nc2c1`, the “hERG current change (%, negative = inhibition) at 1uM” value is reported as -10.3%. `CCNS(=O)(=O)c1ccc(CCC(=O)Nc2ccc3c(c2)OCO3)cc1` was tested, and the “hERG current change (%, negative = inhibition) at 1uM” value was 13.6%. For `COc1ccc(-c2cc(C(F)(F)F)nc(-n3cc(Br)cn3)n2)cc1`, the “hERG current change (%, negative = inhibition) at 1uM” value was 9.29%. `C=CCSC1=C(C#N)C(c2ccccc2OCC)C(C#N)C(=O)N1` (centres unmarked) was tested, and the “hERG current change (%, negative = inhibition) at 1uM” value was 8.47%. `Cc1ccc(-n2c(SCC(=O)NC3CCCCC3)nc3c(c2=O)SCC3)cc1` was tested, and the “hERG current change (%, negative = inhibition) at 1uM” value was 9.81%. With `Cc1cc(SCc2ccc(C(F)(F)F)cc2)nc(=O)[nH]1` the “hERG current change (%, negative = inhibition) at 1uM” value was 14.6%. In the case of `COc1ccc(/C=C/C(=O)OCc2cccc([N+](=O)[O-])c2)cc1`, the “hERG current change (%, negative = inhibition) at 1uM” value is reported as 13.6%. For `CCCCOc1ccc(C(=O)NCCCC(=O)N2CCCCC2)cc1`, the “hERG current change (%, negative = inhibition) at 1uM” value was 6.02%. For `O=C(O)c1ccc(N/N=C/c2cc3cc4c(cc3nc2Cl)OCCO4)cc1`, the “hERG current change (%, negative = inhibition) at 1uM” value was 7.95%. `Nc1nnc(SCCCC(=O)c2ccc(F)cc2)s1` was tested, and the “hERG current change (%, negative = inhibition) at 1uM” value was 5.55%.
